# The other results are listed elsewhere or left out. Sequences were assembled here from the parent chain. Inactive controls read about 0.05.
# B1: TEV protease; numbered along this chain (parent)
# chain: MGESLFKGPRDYNPISSSICHLTNESDGHTTSLYGIGFGPFIITNKHLFRRNNGTLVVQSLHGVFKVKDTTTLQQHLVDGRDMIIIRMPKDFPPFPQKLKFREPQREERICLVTTNFQTKSMSSMVSDTSCTFPSGDGIFWKHWIQTKDGQCGSPLVSTRDGFIVGIHSASNFTNTNNYFTSVPKNFMELLTNQEAQQWVSGWRLNADSVLWGGHKVFMVKPEEPFQPVKEATQL
# Variants of: B1
# Test: raw area under fraction-flipped curve 0-4 h after induction (AUC4h, not background-subtracted), DNA-recorder readout of cleavage of the substrate (dimensionless); higher = more cleavage of the substrate by the protease variant
# Conditions: temperature: 34 °C; time window: 0-4 h after rhamnose induction
# Procedure: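 In vivo DNA recorder in E. coli TOP10(DE3) ΔrhaA at 34 °C. Each TEVp single-site mutant (parent TEVp 0) is paired with a single-site variant of the 7-mer TEVs (canonical ENLYFQ|S). The substrate sits between flexible linkers in a Bxb1-sfGFP-TEVs-SsrA fusion, so cleavage stabilises Bxb1 and speeds flipping of a recombination array, read by NGS. The value is the raw area under the fraction-flipped curve over 0-4 h after rhamnose induction (AUC4h), with ≥20 reads per time point. It is not background-subtracted; inactive controls average about 0.047.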
# 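Further: Bxb1 expression induced with 0.2% (w/v) L-rhamnose at OD600 near 0.5, cultures sampled hourly, flipped fraction per protease–substrate barcode pair counted by paired-end Illumina sequencing.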
Variant,area with substrate ENLYAQS,area with substrate ENLYGQS,area with substrate ENLYHQS,area with substrate ENLYKQS,area with substrate ENLYPQS,area with substrate ENLYRQS,area with substrate ENLYSQS,area with substrate ENLYTQS,area with substrate ENLYWQS,area with substrate ENLYYQS,area with substrate ENLYCQS,area with substrate ENLYDQS,area with substrate ENLYEQS,area with substrate ENLYIQS,area with substrate ENLYLQS,area with substrate ENLYMQS,area with substrate ENLYNQS,area with substrate ENLYQQS,area with substrate ENLYVQS
P184T,0.0659,0.0662,0.0716,0.0482,0.0766,0.0643,0.0635,0.0677,0.0584,0.0664,,,,,,,,,
H143M,0.0723,0.0607,0.0662,0.0541,,0.0581,,0.0668,,0.0419,0.0626,0.0657,0.0594,0.0862,0.071,0.0715,0.0701,0.0481,0.0997
I139E,0.074,0.0601,0.0559,,0.083,,,0.0763,,,,,0.0548,,,0.0715,0.0481,0.0571,0.102
I139L,0.0787,0.0484,0.0718,0.0511,0.0654,0.0617,0.0792,0.0924,0.0877,0.0641,0.0674,0.0602,0.0593,,0.0778,0.0772,0.0534,0.0552,0.0666
T147L,0.0798,0.0298,0.0632,0.0639,0.0614,0.0403,0.0721,0.0593,0.0542,0.0739,0.0778,0.0547,0.0611,0.0675,0.0723,0.0561,0.0589,,0.0715
K142Q,0.0762,,0.0692,0.0589,,0.0544,0.0707,,0.0873,0.0568,,0.0621,0.0608,0.111,,0.0643,,0.0834,0.134
K142C,0.0746,0.0628,,0.0587,0.0773,0.0626,0.0668,0.123,0.0611,0.065,,,0.0649,0.0918,,0.079,0.0933,,
T132W,0.0648,,0.0469,0.069,0.0569,0.0604,,,0.0568,,0.0755,0.0651,0.0532,0.0898,0.0703,0.0687,0.0589,,0.0718
T132H,0.0807,0.0684,0.0549,0.054,0.0712,0.0515,0.0528,0.0877,0.0489,,0.0534,,0.0598,0.1,,,0.0603,,
Q151A,0.0732,0.0491,0.0658,0.0259,0.0667,0.0722,0.067,0.0686,,,,0.05,0.0666,0.103,,0.0868,0.0537,0.0459,0.121
I164R,0.0522,,0.0562,0.0433,0.0661,0.0591,,0.0609,0.0794,0.0484,,0.0466,0.0541,0.0534,0.0571,0.0547,0.0546,0.052,0.0413
V183S,0.0581,0.0689,0.045,0.0875,0.0688,,0.0639,,0.0728,,,,0.0704,,,0.0641,0.0717,,0.102
